Measurements taken from PubChem BioAssay (Tox21).
Values joined by “and” are separate entries in the source; they are usually repeats but may differ in a detail not shown here. Equal entries are not always repeated. This list was built around the results that the source calls inconclusive (neither active nor inactive); the mix of calls is not that of the screen. Entries that show only a call come without a potency. For some assays here: Potencies of inconclusive entries are doubtful fits and often do not repeat. Some structures have more than one record in an assay (separate samples or runs), and their calls can disagree. Active and inactive are the calls of the source. Unless noted, calls come from the whole dose curve; as a rule, active = well fitted curve in the direction sought with a large enough effect in the repeat runs; inconclusive = weak or mixed curves; inactive = no such curve, though single readings can be large; an effect the other way counts as inactive or inconclusive.

What was measured:
[1] = qHTS assay to identify small molecule agonists of the peroxisome proliferator-activated receptor delta (PPARd) signaling pathway - cell viability counter screen (AID 743211); conditions: PPARd-bla HEK293H viability, CellTiter-Glo luminescence, 17 h; activity change, negative = cytotoxicity: at 62.6 µM (top of the series) unless noted; note: nearly all actives have a fitted effect of over 55% in size; note: potency is the fitted concentration of half-maximal effect
Procedure, shortened: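 Read-out: CellTiter-Glo luminescence, 30 min RT, measured in the same wells as the beta-lactamase reporter. Cells: GeneBLAzer PPAR delta UAS-bla HEK293H, 3000 cells/well, compound exposure 17 h at 37C.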

[2] = qHTS assay for small molecule disruptors of the mitochondrial membrane potential - cell viability (AID 720634; calls by dose curve;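 note: human HepG2 liver cancer cells; nearly all actives have a fitted effect of over 20% in size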)
Procedure, shortened: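 HepG2 cells seeded overnight at 37 C, then exposed to compound or DMSO for 1 hr at 37 C, 5% CO2. m-MPI dye added, then CellTiter-Glo for 30 min at room temperature; viability read as ATP luminescence.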

[3] = qHTS RealTime-Glo MT Cell Viability Assay in HepG2 cells - 32 hour (AID 1224877); note: nearly all actives have a fitted effect of over 55% in size
Procedure, shortened: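 qHTS, HepG2, 600 cells/well, RealTime-Glo (NanoLuc + prosubstrate) added with cells; 5 h preincubation; DMSO compound addition; 37 C; luminescence at 0/8/16/24/32/40 h.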

[4] = qHTS assay to identify small molecule antagonists of the androgen receptor (AR) signaling pathway using the MDA cell line in the presence of 0.5 nM R1881 - cell viability counter screen (AID 1259242); note: nearly all actives have a fitted effect of over 45% in size
Procedure, shortened: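 MDA-kb2 cells (human breast carcinoma, stably carrying MMTV-luciferase reporter) were exposed to compounds with 0.5 nM R1881 (final) for 16 hr at 37C, 0% CO2; viability then read as live-cell protease fluorescence (CellTiter-Fluor, 30 min) in the same wells.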

[5] = molecular target: Androgen receptor (Homo sapiens) (UniProt P10275); assay: qHTS assay to identify small molecule antagonists of the androgen receptor (AR) signaling pathway (AID 743035; active = well fitted inhibition curve with a large enough effect in the signal ratio in the repeat runs, not every such curve was filed as active; inconclusive = weak or mixed curves, or effect the other way; inactive = no such curve, though single readings can be large or run the other way; the % refers to the signal ratio; note: potency is the fitted concentration of half-maximal effect); conditions: HEK293 AR-UAS-bla, R1881-stimulated, beta-lactamase FRET, 16 h; activity change, negative = inhibition: at 58.5 µM (top of the series) unless noted
Sequence of UniProt P10275 (P10275 whole entry, looked up): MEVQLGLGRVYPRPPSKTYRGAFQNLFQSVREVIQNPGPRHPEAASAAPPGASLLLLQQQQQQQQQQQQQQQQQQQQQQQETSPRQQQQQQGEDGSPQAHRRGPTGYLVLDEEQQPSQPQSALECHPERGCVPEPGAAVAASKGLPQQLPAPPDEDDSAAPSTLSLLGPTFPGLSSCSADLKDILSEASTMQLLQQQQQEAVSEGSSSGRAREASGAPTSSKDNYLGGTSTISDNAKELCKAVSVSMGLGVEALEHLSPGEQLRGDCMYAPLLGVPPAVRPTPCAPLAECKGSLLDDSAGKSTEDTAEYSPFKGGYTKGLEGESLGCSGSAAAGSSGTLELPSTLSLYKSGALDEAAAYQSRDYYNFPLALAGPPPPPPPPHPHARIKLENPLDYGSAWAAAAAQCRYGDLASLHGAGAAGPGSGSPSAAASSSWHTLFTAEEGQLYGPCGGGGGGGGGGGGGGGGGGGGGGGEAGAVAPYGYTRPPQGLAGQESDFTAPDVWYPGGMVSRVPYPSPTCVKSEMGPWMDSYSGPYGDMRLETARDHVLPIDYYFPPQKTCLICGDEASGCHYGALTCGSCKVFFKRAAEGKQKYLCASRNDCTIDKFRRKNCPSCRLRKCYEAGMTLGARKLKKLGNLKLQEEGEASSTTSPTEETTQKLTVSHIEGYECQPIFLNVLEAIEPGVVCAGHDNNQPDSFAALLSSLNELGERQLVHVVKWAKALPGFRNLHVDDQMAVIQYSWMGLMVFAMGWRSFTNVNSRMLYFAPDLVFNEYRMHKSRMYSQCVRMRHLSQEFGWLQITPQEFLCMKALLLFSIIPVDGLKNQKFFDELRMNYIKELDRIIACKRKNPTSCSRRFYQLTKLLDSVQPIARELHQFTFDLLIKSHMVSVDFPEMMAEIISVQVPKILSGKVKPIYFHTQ
Procedure, shortened: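 HEK293 cells stably carrying a UAS-driven beta-lactamase reporter (AR-UAS-bla GripTite) were plated for 4 h at 37C, then given compound and the agonist R1881 and incubated 16 h. Reporter activity was read by LiveBLAzer B/G FRET fluorescence after 2 h at room temperature.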

[6] = A CellTox Green Cytotoxicity Assay to monitor cytotoxicity in HepG2 cells - 16 hour (AID 1224876); note: nearly all actives have a fitted effect of over 45% in size
Procedure, shortened: (§1)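 HepG2 cells were seeded together with the CellTox Green dye at 600 cells/well, left 5 h at 37 C/5% CO2, then given compounds in DMSO. Fluorescence from dye bound to dead-cell DNA was read repeatedly over 40 h of treatment at 37 C.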

[7] = molecular target: Vitamin D3 receptor (Homo sapiens) (UniProt P11473); assay: qHTS assay to identify small molecule agonists of the vitamin D receptor (VDR) signaling pathway (AID 743222; calls by dose curve); conditions: HEK293T VDR-UAS-bla, beta-lactamase FRET ratio, 16 h; activation: at 63.5 µM (top of the series) unless noted
Sequence of UniProt P11473 (P11473 whole entry, looked up): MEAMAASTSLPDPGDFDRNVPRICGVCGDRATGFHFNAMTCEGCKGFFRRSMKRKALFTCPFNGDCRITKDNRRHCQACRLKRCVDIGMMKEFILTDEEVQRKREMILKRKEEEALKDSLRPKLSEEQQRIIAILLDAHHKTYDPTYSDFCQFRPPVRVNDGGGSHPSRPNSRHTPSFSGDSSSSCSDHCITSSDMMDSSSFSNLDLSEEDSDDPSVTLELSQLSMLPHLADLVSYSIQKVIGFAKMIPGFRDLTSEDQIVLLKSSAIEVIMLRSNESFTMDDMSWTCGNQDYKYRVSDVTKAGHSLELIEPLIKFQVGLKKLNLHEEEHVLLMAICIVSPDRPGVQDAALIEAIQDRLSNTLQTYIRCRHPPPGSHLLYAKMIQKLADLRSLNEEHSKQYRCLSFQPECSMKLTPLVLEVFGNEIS
Procedure, shortened: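 VDR-bla cells were plated 4 h at 37C/5% CO2, then exposed to compounds in DMSO for 16 h. After LiveBLAzer B/G FRET substrate addition and 2 h at room temperature, beta-lactamase reporter fluorescence was read.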

[8] = qHTS assay to identify small molecule antagonists of the sonic hedgehog signaling (Shh) pathway - cell viability counter screen (AID 1259367); note: nearly all actives have a fitted effect of over 55% in size; note: potency is the fitted concentration of half-maximal effect
Procedure, shortened: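 Seed 3T3 Gli1-Luc cells at 2,000 per well; incubate 4 hr; add compound in DMSO, then conditioned medium; incubate at 37C with 5% CO2; add CellTiter-Fluor after 23 hr; read fluorescence 1 hr later.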

[9] = Caspase-3/7 induction in CHO-K1 cells by small molecules, qHTS assay (AID 1346980); note: nearly all actives have a fitted effect of over 15% in size
Procedure, shortened: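 Wild-type CHO-K1 cells exposed to compounds for 17hr at 37 C, 5% CO2. Caspase-3/7 activity then measured by Caspase-Glo 3/7 luminescence after 30min at room temperature.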

[10] = qHTS assay for small molecules that induce genotoxicity in human embryonic kidney cells expressing luciferase-tagged ATAD5 (AID 651632); note: nearly all actives have a fitted effect of over 15% in size; note: potency is the fitted concentration of half-maximal effect
Procedure, shortened: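 HEK293T cells carrying a luciferase reporter tagged to ATAD5 were exposed to compound or DMSO vehicle for 16 hr at 37C, 5% CO2. Amplite was added, and after 30 min at room temperature luciferase activity was read as a marker of ATAD5 induction.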

[11] = qHTS assay to identify small molecule HDAC inhibitors - cell viability counter screen (AID 1259365); note: nearly all actives have a fitted effect of over 50% in size
Procedure, shortened: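 HCT-116 (wild type), 1,500 cells/well, overnight 37C/5% CO2; compound in DMSO 2hr; CellTiter-Glo 30min RT; luminescence read.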

[12] = qHTS assay to identify small molecule agonists or antagonists of the thyroid stimulating hormone receptor (TSHR) signaling pathway - wild type cell line counter screen (AID 1259384; calls by dose curve); conditions: HEK293 wild type, cAMP HTRF counter-screen; cAMP activity change: at 92.4 µM (top of the series), stronger effect = higher value unless noted
Procedure, shortened: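 Wild-type Hek293 cells, 800/well, 18 h at 37C, then compound with Ro20-1724 for 30 min RT. cAMP by HTRF (cAMP-d2/anti-cAMP cryptate), 1 h RT, fluorescence read. 15 concentrations, triplicates.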

[13] = qHTS assay to identify small molecule agonists of the estrogen receptor alpha (ER-alpha) signaling pathway in the presence of an antagonist - cell viability counter screen (AID 1259386);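 note: cells exposed to compounds for 22 h at 37 °C before the viability read; nearly all actives have a fitted effect of over 30% in size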
Procedure, shortened: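 VM7Luc4E2 cells (endogenous full-length ER-alpha, 4×ERE-luciferase) were held 5 days in phenol red-free medium with 10% charcoal-stripped FBS, plated, then given 10.0nM ICI-182,780 and compounds at 15 concentrations for 22hr at 37C; viability read by CellTiter-Fluor fluorescence.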

Aromatase (Homo sapiens) = Aromatase (Homo sapiens) (UniProt P11511); assay: qHTS assay to identify aromatase inhibitors (AID 743083); note: nearly all actives have a fitted effect of over 55% in size
Sequence of UniProt P11511 (P11511 whole entry, looked up): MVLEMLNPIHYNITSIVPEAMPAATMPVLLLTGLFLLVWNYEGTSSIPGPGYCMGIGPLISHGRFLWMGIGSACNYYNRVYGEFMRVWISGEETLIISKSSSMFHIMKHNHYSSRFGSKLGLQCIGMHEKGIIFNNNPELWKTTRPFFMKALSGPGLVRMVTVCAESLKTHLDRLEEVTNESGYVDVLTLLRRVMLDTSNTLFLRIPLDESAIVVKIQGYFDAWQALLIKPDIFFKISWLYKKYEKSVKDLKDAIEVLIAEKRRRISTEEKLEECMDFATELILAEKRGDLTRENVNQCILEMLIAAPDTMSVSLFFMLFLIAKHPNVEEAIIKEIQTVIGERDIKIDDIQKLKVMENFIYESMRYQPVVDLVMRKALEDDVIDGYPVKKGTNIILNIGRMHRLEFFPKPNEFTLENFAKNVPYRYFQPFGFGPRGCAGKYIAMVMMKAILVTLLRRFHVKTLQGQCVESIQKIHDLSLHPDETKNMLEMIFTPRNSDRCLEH

[14] = A CellTox Green Cytotoxicity Assay to monitor cytotoxicity in HepG2 cells - 0 hour (AID 1224882); note: nearly all actives have a fitted effect of over 35% in size; note: potency is the fitted concentration of half-maximal effect
Procedure, shortened: as §1

[15] = qHTS assay to identify small molecule antagonists of the estrogen receptor alpha (ER-alpha) signaling pathway using the BG1 cell line in the presence of 0.1 nM 17-beta-estradiol - cell viability counter screen (AID 1259241); note: nearly all actives have a fitted effect of over 40% in size
Procedure, shortened: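 Live-cell protease activity (CellTiter-Fluor fluorescence, 30 min) was read in the same wells after VM7Luc4E2 cells had been exposed to compounds with 0.1 nM 17beta-estradiol for 22 hr at 37C.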

[16] = molecular target: Bile acid receptor (Homo sapiens) (UniProt Q96RI1); assay: qHTS assay to identify small molecule agonists of the farnesoid-X-receptor (FXR) signaling pathway (AID 743220; active = well fitted activation curve with a large enough effect in the signal ratio in the repeat runs, not every such curve was filed as active; inconclusive = weak or mixed curves, or effect the other way; the % refers to the signal ratio); conditions: HEK293T FXR-UAS-bla, beta-lactamase FRET ratio, 16 h; activation: at 62.6 µM (top of the series) unless noted
Sequence of UniProt Q96RI1 (Q96RI1 whole entry, looked up): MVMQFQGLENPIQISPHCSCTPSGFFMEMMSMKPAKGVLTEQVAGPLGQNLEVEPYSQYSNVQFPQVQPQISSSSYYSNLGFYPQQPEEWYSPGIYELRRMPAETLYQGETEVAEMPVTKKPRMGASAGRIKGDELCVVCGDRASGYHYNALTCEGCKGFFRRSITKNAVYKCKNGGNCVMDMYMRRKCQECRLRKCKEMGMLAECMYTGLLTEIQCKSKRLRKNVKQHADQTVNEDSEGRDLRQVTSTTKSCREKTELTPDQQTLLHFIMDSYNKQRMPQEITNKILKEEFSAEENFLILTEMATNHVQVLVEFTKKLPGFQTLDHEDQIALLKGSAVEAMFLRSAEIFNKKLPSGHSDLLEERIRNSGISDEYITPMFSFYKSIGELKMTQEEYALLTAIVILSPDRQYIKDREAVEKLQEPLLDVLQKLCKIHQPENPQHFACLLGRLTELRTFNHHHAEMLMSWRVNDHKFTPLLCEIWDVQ
Procedure, shortened: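 Beta-lactamase reporter under UAS control in GeneBLAzer FXR HEK 293T cells (5000/well) measured with LiveBLAzer FRET substrate after 2 h at room temperature. Compound exposure lasted 16 h at 37C.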

[17] = qHTS assay for small molecule agonists of the p53 signaling pathway - cell viability (AID 651633; calls by dose curve; note: nearly all actives have a fitted effect of over 30% in size; note: potency is the fitted concentration of half-maximal effect;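 for activity change, negative = cytotoxicity: p53RE-bla HCT reporter cells with a stable beta-lactamase p53 reporter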)
Procedure, shortened: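 p53RE-bla cells were treated with compound for 16 hours at 37 C. Cytotoxicity was then measured as CellTiter-Glo luminescence after 30 min at room temperature.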
Tags give direction and shape of the fitted curve.

CCn1cc(C(=O)O)c(=O)c2cc3c(cc21)OCO3
Potency [1]: inconclusive: 62.5 µM [cytotoxic, partial curve, poor fit] and inactive

Nc1ccc(/C=C/c2ccc(N)cc2S(=O)(=O)O)c(S(=O)(=O)O)c1
Potency [2]: inactive
activity change, negative = cytotoxic [3]: inactive: -0.0646% [at 0.29 µM]
viability change, negative = cytotoxic [4]: inactive: 2% [at 0.349 µM]

Cc1ncc(CO)c(CN)c1O
Potency [5]: inactive

COC(=O)c1ccc(C(=O)O)cc1
Potency [6]: inactive

CN1CCN(c2c(F)cc3c(=O)c(C(=O)O)cn4c3c2OCN4C)CC1
cytotoxicity increase [6]: inactive: -5.53% [at 15.8 µM]

CC(C)(O)C(=O)c1ccccc1
Potency [7]: inactive

NC(N)=O
Potency [1]: inactive
Potency [8]: active: 16.3 µM
Potency [9]: inactive

CCCC(=O)O[C@]1(C(=O)CO)CC[C@H]2[C@@H]3CCC4=CC(=O)CC[C@]4(C)[C@H]3[C@@H](O)C[C@@]21C
Potency [10]: inconclusive: 37.6 nM [activator, full curve, poor fit]

CC1=CCC(=O)O1
Potency [11]: inactive

O=C(O)[C@@H]1CSCN1
Potency [12]: inactive

CCCCCCCCCCC(CO)CCCCCCCC (centres undefined)
Potency [1]: inconclusive: 21.9 µM [cytotoxic]

COCCOC(=O)CC#N
Potency [7]: inactive

c1coc(CNc2ncnc3nc[nH]c23)c1
Potency [9]: inactive

C=C(C)C(=O)OCc1ccccc1
Potency [13]: inactive

O=C(CO)[C@@H](O)[C@H](O)[C@@H](O)CO
Potency (Aromatase (Homo sapiens)): inactive
Potency [14]: inconclusive: 26.8 µM [activator, single point]
Potency [8]: inactive

C/C=C(\C)C=O
Potency [14]: inactive
Potency [8]: inactive

CCCC(O)C(O)CO (centres undefined)
Potency [3]: inactive

CCN1CCCC(OC(=O)C(c2ccccc2)c2ccccc2)C1 (centres undefined)
Potency [3]: inactive

CCOC(=O)[C@H](O)[C@@H](O)C(=O)OCC
Potency [15]: inactive

CCCCCCCCCCC1CO1 (centres undefined)
activation [7]: inconclusive: 0.805%

COc1cc([C@@H]2c3cc4c(cc3C(O[C@@H]3O[C@@H]5CO[C@@H](C)O[C@H]5[C@H](O)[C@H]3O)C3COC(=O)[C@@H]32)OCO4)cc(OC)c1OP(=O)(O)O (some centres undefined)
Potency [10]: active: 2.66 µM and active: 6.68 µM

CN1[C@@H]2CC[C@H]1CC(NC(=O)n1c(=O)[nH]c3ccccc31)C2 (some centres undefined)
Potency [16]: inactive

COc1cc(NS(=O)(=O)c2ccc(N)cc2)ncn1
Potency [10]: inactive

O=S(=O)(O)c1ccc2cc(O)ccc2c1
Potency [10]: inactive
Potency [4]: inactive

CCC(=O)c1ccc2c(c1)N(CCCN1CCN(CCO)CC1)c1ccccc1S2
Potency [17]: inconclusive: 33.5 µM [cytotoxic, single point]

C=C[C@]1(C)C[C@@H](OC(=O)CSCCN(CC)CC)[C@]2(C)[C@H](C)CC[C@]3(CCC(=O)[C@H]32)[C@@H](C)[C@@H]1O
Potency (Aromatase (Homo sapiens)): inactive

N[C@H]1CN(c2c(F)cc3c(=O)c(C(=O)O)cn(C4C[C@H]4F)c3c2Cl)CC12CC2 (some centres undefined)
Potency [17]: inactive

C=C[C@]1(C)C[C@@H](OC(=O)CSC(C)(C)CNC(=O)[C@H](N)C(C)C)[C@]2(C)[C@H](C)CC[C@]3(CCC(=O)[C@H]32)[C@@H](C)[C@@H]1O
Potency [5]: active: 23.9 µM

CCCOCCOCCOCCO
Potency [15]: inactive

CC/C(C)=N/O
Potency [1]: inconclusive: 21.9 µM [cytotoxic, single point]

O=C(O)c1c(Cl)c(Cl)c(Cl)c(Cl)c1-c1c2cc(I)c(=O)c(I)c-2oc2c(I)c(O)c(I)cc12
Potency [17]: inconclusive: 29.8 µM [cytotoxic, single point]
Potency [5]: inactive

CC(=O)SCC(CC(=O)c1ccc(C)cc1)C(=O)O (centres undefined)
Potency [17]: inactive
Potency [15]: inactive

CCCCc1ccc(Cl)cc1
Potency [1]: inconclusive: 54.9 µM [cytotoxic, partial curve, poor fit]
Potency [15]: inactive
